We go through 20 molecules from publication PMC9911399, “Two distinct binding modes provide the RNA-binding protein RbFox with extraordinary sequence specificity”.

Substitutions are numbered along the chain they refer to; changes in the protein carry UniProt numbers. The list shows a part of the results.

The labels stand for the following.
T1: RBFOX1 RRM (Homo sapiens, UniProt Q9NWB1 109-208)
T1 sequence: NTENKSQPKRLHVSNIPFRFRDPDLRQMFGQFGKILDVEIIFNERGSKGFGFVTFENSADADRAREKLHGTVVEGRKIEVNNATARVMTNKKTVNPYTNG

B1: CAACGUU (DNA:RNA)
RNA: GGGAGACCGGAAUUCAGAUUGUCCCAACGUUUUAAAUCCCGUCGUAGCCACCA
DNA 1: CAATCTGAATTCCGGTCTCCC
DNA 2: TGGTGGCTACGACGGGATT
B2: UCGAUAA (DNA:RNA)
RNA: GGGAGACCGGAAUUCAGAUUGUCCUCGAUAAUUAAAUCCCGUCGUAGCCACCA
DNA 1: CAATCTGAATTCCGGTCTCCC
DNA 2: TGGTGGCTACGACGGGATT
B3: GUCUCAU (DNA:RNA)
RNA: B1 RNA with C25G, A26U, A27C, C28U, G29C, U30A
DNA 1: CAATCTGAATTCCGGTCTCCC
DNA 2: TGGTGGCTACGACGGGATT
B4: UCACUUC (DNA:RNA)
RNA: B1 RNA with C25U, A26C, G29U, U31C
DNA 1: CAATCTGAATTCCGGTCTCCC
DNA 2: TGGTGGCTACGACGGGATT
B5: CCUGACA (DNA:RNA)
RNA: B2 RNA with U25C, G27U, A28G, U29A, A30C
DNA 1: CAATCTGAATTCCGGTCTCCC
DNA 2: TGGTGGCTACGACGGGATT
B6: GGCGGGC (DNA:RNA)
RNA: B1 RNA with C25G, A26G, A27C, C28G, U30G, U31C
DNA 1: CAATCTGAATTCCGGTCTCCC
DNA 2: TGGTGGCTACGACGGGATT
B7: UGUUACU (DNA:RNA)
RNA: B1 RNA with C25U, A26G, A27U, C28U, G29A, U30C
DNA 1: CAATCTGAATTCCGGTCTCCC
DNA 2: TGGTGGCTACGACGGGATT
B8: AGCACGC (DNA:RNA)
RNA: B2 RNA with U25A, C26G, G27C, U29C, A30G, A31C
DNA 1: CAATCTGAATTCCGGTCTCCC
DNA 2: TGGTGGCTACGACGGGATT
B9: GUUCGAA (DNA:RNA)
RNA: B1 RNA with C25G, A26U, A27U, U30A, U31A
DNA 1: CAATCTGAATTCCGGTCTCCC
DNA 2: TGGTGGCTACGACGGGATT
B10: UUCGGAA (DNA:RNA)
RNA: B2 RNA with C26U, G27C, A28G, U29G
DNA 1: CAATCTGAATTCCGGTCTCCC
DNA 2: TGGTGGCTACGACGGGATT
B11: ACAUAUA (DNA:RNA)
RNA: B1 RNA with C25A, A26C, C28U, G29A, U31A
DNA 1: CAATCTGAATTCCGGTCTCCC
DNA 2: TGGTGGCTACGACGGGATT
B12: GAUGCCG (DNA:RNA)
RNA: B1 RNA with C25G, A27U, C28G, G29C, U30C, U31G
DNA 1: CAATCTGAATTCCGGTCTCCC
DNA 2: TGGTGGCTACGACGGGATT
B13: UACCAGC (DNA:RNA)
RNA: B1 RNA with C25U, A27C, G29A, U30G, U31C
DNA 1: CAATCTGAATTCCGGTCTCCC
DNA 2: TGGTGGCTACGACGGGATT
B14: CAUCCUC (DNA:RNA)
RNA: B1 RNA with A27U, G29C, U31C
DNA 1: CAATCTGAATTCCGGTCTCCC
DNA 2: TGGTGGCTACGACGGGATT
B15: CCGCACU (DNA:RNA)
RNA: B1 RNA with A26C, A27G, G29A, U30C
DNA 1: CAATCTGAATTCCGGTCTCCC
DNA 2: TGGTGGCTACGACGGGATT
B16: ACCCUAG (DNA:RNA)
RNA: B2 RNA with U25A, G27C, A28C, A31G
DNA 1: CAATCTGAATTCCGGTCTCCC
DNA 2: TGGTGGCTACGACGGGATT
B17: ACCGCGC (DNA:RNA)
RNA: B2 RNA with U25A, G27C, A28G, U29C, A30G, A31C
DNA 1: CAATCTGAATTCCGGTCTCCC
DNA 2: TGGTGGCTACGACGGGATT
B18: GCCGAAC (DNA:RNA)
RNA: B2 RNA with U25G, G27C, A28G, U29A, A31C
DNA 1: CAATCTGAATTCCGGTCTCCC
DNA 2: TGGTGGCTACGACGGGATT
B19: UAGGUUC (DNA:RNA)
RNA: B2 RNA with C26A, A28G, A30U, A31C
DNA 1: CAATCTGAATTCCGGTCTCCC
DNA 2: TGGTGGCTACGACGGGATT
B20: CCGGCUA (DNA:RNA)
RNA: B2 RNA with U25C, A28G, U29C, A30U
DNA 1: CAATCTGAATTCCGGTCTCCC
DNA 2: TGGTGGCTACGACGGGATT

This experiment deals with T1, RBFOX1 RRM. Put plainly: EMSA; HiTS-Eq, 1 nM pool, 10 min; buffer printed only for the single-RNA assays: 10 mM Tris pH 7.5, 150 mM NaCl, 3.4 mM EDTA, 0.001% NP-40, 30 C. The following applies: tags: His6 N-terminal (pET28a); label: 5' 32P. In outline: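 Purified RbFox RRM (wild type or mutant) was equilibrated for 10 min in 50 µL with 1 nM of a 5′-radiolabelled pool of RNA with 7 randomized nucleotides, its flanks annealed to DNA oligonucleotides, across increasing protein concentrations. Free RNA was separated by 8% native PAGE, excised, reverse-transcribed, PCR-barcoded and sequenced on an Illumina HiSeq 2500. Relative association constants came from read-count changes of each variant against the control reaction, normalised to the cognate motif.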
On the technique in general: A gel shift assay detects complexes by their altered migration in electrophoresis.
On to B1, for which the binding signal is 0.0031 KA relative to UGCAUGU.
To B2 belongs 0.00672 KA relative to UGCAUGU; to B3, 0.00884 KA relative to UGCAUGU; to B4, 0.00407 KA relative to UGCAUGU.
The same measure for B5: 0.00293 KA relative to UGCAUGU.
For B6, the binding signal is 0.0218 KA relative to UGCAUGU.
The same measure for B7: 0.014 KA relative to UGCAUGU.
To B8 belongs 0.0234 KA relative to UGCAUGU.
In the case of B9, the binding signal is 0.0191 KA relative to UGCAUGU.
To B10 belongs 0.00868 KA relative to UGCAUGU; to B11, 0.00156 KA relative to UGCAUGU.
The same measure for B12: 0.0098 KA relative to UGCAUGU; for B13: 0.00367 KA relative to UGCAUGU; for B14: 0.00301 KA relative to UGCAUGU.
The same measure for B15: 0.00621 KA relative to UGCAUGU.
On to B16, for which the binding signal was 0.00387 KA relative to UGCAUGU.
To B17 belongs 0.00734 KA relative to UGCAUGU.
With B18, the binding signal was 0.0141 KA relative to UGCAUGU.
In the case of B19, the binding signal was 0.0212 KA relative to UGCAUGU.
The same measure for B20: 0.0133 KA relative to UGCAUGU.
